# In the supplement of paper PMC12645437, “Orthogonal IMiD-Degron Pairs Induce Selective Protein Degradation in Cells” (ACS Chemical Biology, 2025):
# The list shows a part of the results.
# Molecular target: no compound (DMSO)
# Experiment: log2 fold change of degron read counts, EGFP-low vs EGFP+ sorted cells; higher = lower degron-EGFP level without compound (poor expression or instability)
# Settings: compound: DMSO control; 18 h
# 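Further: jurkat cells carrying a lentiviral library of mutant zinc finger degrons fused to EGFP plus mCherry, mCherry+ cells FACS sorted, degron abundance counted by next-generation sequencing.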
row,Sequence,log2 fold change of degron read counts
1,FICDICGAIFTQKGNLLRHIKL,-0.54
2,LLCEICGFACTQKGNLLRHIKL,0.449
3,FGCNVCGACFTQKGNLLRHIKL,0.0994
4,FGCPICGRFFTQKGNLLRHIKL,1.02
5,FNCNQCGHCFTQKGNLLRHIKL,0.566
6,FMCEICGHLFTQKGNLLRHIKL,-1.11
7,FQCEQCGAGFTQKGNLLRHIKL,-2.84
8,FWCNQCGHSFTQKGNLLRHIKL,0.52
9,FVCDICGAYFTQKGNLLRHIKL,-0.468
10,FICNQCGANFTQKGNLLRHIKL,-0.881
11,FGCNQCGAWFTQKGNLLRHIKL,1.2
12,FSCPICGAKFTQKGNLLRHIKL,-1.04
13,LGCEICGFVCTQKGNLLRHIKL,0.859
14,FYCPVCGAYFTQKGNLLRHIKL,1.02
15,FRCDQCGAQFTQKGNLLRHIKL,-1.05
16,FYCNQCGRDFTQKGNLLRHIKL,-0.127
17,FRCPQCGACFTQKGNLLRHIKL,0.157
18,LTCPICGFACTQKGNLLRHIKL,0.412
19,LGCPICGFPCTQKGNLLRHIKL,1.23
20,FTCNQCGRHFTQKGNLLRHIKL,-0.856
21,FTCNQCGAYFTQKGNLLRHIKL,0.0312
22,FDCDICGAFFTQKGNLLRHIKL,0.716
23,FTCNQCGHMFTQKGNLLRHIKL,-0.303
24,FQCEICGRDFTQKGNLLRHIKL,-0.555
25,FMCDICGAMFTQKGNLLRHIKL,-0.622

row,Sequence,log2 fold change of degron read counts
1,FTCPVCGACFTQKGNLLRHIKL,0.318
2,FVCNQCGHAFTQKGNLLRHIKL,-0.763
3,FCCDICGAYFTQKGNLLRHIKL,-0.245
4,FGCEVCGANFTQKGNLLRHIKL,-1.73
5,FGCEICGRAFTQKGNLLRHIKL,-0.827
6,FICNQCGAMFTQKGNLLRHIKL,-0.042
7,FKCNQCGARFTQKGNLLRHIKL,-0.732
8,FYCNQCGHMFTQKGNLLRHIKL,-0.059
9,FWCPQCGAIFTQKGNLLRHIKL,2.21
10,LGCNQCGFLCTQKGNLLRHIKL,1.47
11,FFCDQCGAWFTQKGNLLRHIKL,0.465
12,FRCPICGHQFTQKGNLLRHIKL,0.31
13,FECPQCGAEFTQKGNLLRHIKL,-2.49
14,FKCNQCGHAFTQKGNLLRHIKL,-0.595
15,FLCDVCGAIFTQKGNLLRHIKL,-0.371
16,FWCEQCGAFFTQKGNLLRHIKL,0.599
17,FDCEQCGAEFTQKGNLLRHIKL,-2.75
18,FMCEICGALFTQKGNLLRHIKL,-0.706
19,FLCSVCGHLFTQKGNLLRHIKL,0.556
20,FCCDQCGAPFTQKGNLLRHIKL,-1.88
21,LGCEICGFYCTQKGNLLRHIKL,1.39
22,LECNQCGFHCTQKGNLLRHIKL,-0.183
23,FWCNQCGADFTQKGNLLRHIKL,0.167
24,FCCNQCGADFTQKGNLLRHIKL,-1.19
25,FICPICGHLFTQKGNLLRHIKL,0.128
